# Measured values reported in the supplement of paper PMC8728848.
# Some of the results follow.
# B1: STA (Solanum tuberosum), Q9S8M0 (protein)
# chain: NASPPSPSPLPYPQCGMKKGGGKCIKTGECCSIWGWCGTTNAYCSPGYCQKQCPGPYPEGRCGWQANGKSCPTGTGQCCSNGGWCGTTSDYCASKNCQSQCKLPSPPPPPPPPSPPPPSPPSPPPPSPPPPPPPSPPPPSPPPPSPSPPPPPASPPPPPPALPYPQCGIKKGGGKCIKTGECCSIWGWCGTTNAYCSPGYCQKQCPGPYPEGRCGWQANGKSCPTGTGHCCSNAGWCGTTSDYCAPVNCQAQCNTTTLTSPIKNRMRGIESFMLNVV
# What was measured:
# Experiment in all cases: glycan array binding signal (z-score within array); higher = stronger binding
# Settings in all cases: glycan notation: IUPAC condensed, linker removed
# [1] = biological target: Neu5Ac(a2-3)Gal(b1-4)GlcNAc(b1-3)Gal(b1-4)[Fuc(a1-3)]GlcNAc
# In short: (§1)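 Negative Z-scores can be read as non-binding. The Z-score is calculated within each array and then averaged across arrays of one protein sequence at different concentrations or buffers and across linkers. Arrays, 3228 in all, were curated from the Consortium for Functional Glycomics database and kept only where the protein sequence was available.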
# [2] = biological target: Neu5Ac(a2-3)Gal(b1-4)GlcNAc(b1-6)[Gal(b1-3)]GalNAc
# In short: as §1
# [3] = biological target: Neu5Ac(a2-3)Gal(b1-4)GlcNAc6S
# In short: as §1
# [4] = biological target: Neu5Ac(a2-3)Gal(b1-4)[Fuc(a1-3)]GlcNAc
# In short: as §1
# [5] = biological target: Neu5Ac(a2-3)Gal(b1-4)[Fuc(a1-3)]GlcNAc(b1-3)Gal
# In short: as §1
# [6] = biological target: Neu5Ac(a2-3)Gal(b1-4)[Fuc(a1-3)]GlcNAc(b1-3)Gal(b1-4)GlcNAc
# In short: as §1
# [7] = biological target: Neu5Ac(a2-3)Gal(b1-4)[Fuc(a1-3)]GlcNAc(b1-3)Gal(b1-4)[Fuc(a1-3)]GlcNAc(b1-3)Gal(b1-4)[Fuc(a1-3)]GlcNAc
# In short: as §1
# [8] = biological target: Neu5Ac(a2-3)Gal(b1-4)[Fuc(a1-3)]GlcNAc6S
# In short: as §1
# [9] = biological target: Neu5Ac(a2-3)Gal6S(b1-4)GlcNAc
# In short: as §1
# [10] = biological target: Neu5Ac(a2-3)Gal6S(b1-4)[Fuc(a1-3)]GlcNAc
# In short: as §1
# Neu5Ac(a2-3)GalNAc = biological target: Neu5Ac(a2-3)GalNAc
# In short: as §1
# [11] = biological target: Neu5Ac(a2-3)GalNAc(b1-4)GlcNAc
# In short: as §1
# [12] = biological target: Neu5Ac(a2-3)[GalNAc(b1-4)]Gal(b1-4)Glc
# In short: as §1
# [13] = biological target: Neu5Ac(a2-3)[GalNAc(b1-4)]Gal(b1-4)GlcNAc
# In short: as §1
# [14] = biological target: Neu5Ac(a2-3)[Neu5Ac(a2-6)]GalNAc
# In short: as §1
# [15] = biological target: Neu5Ac(a2-6)Gal(b1-4)GlcNAc
# In short: as §1
# [16] = biological target: Neu5Ac(a2-6)Gal(b1-4)GlcNAc(b1-2)Man(a1-3)[Neu5Ac(a2-6)Gal(b1-4)GlcNAc(b1-2)Man(a1-6)]Man(b1-4)GlcNAc(b1-4)GlcNAc
# In short: as §1
# [17] = biological target: Neu5Ac(a2-6)Gal(b1-4)GlcNAc(b1-3)Gal(b1-4)GlcNAc
# In short: as §1
# [18] = biological target: Neu5Ac(a2-6)Gal(b1-4)GlcNAc(b1-3)Gal(b1-4)[Fuc(a1-3)]GlcNAc(b1-3)Gal(b1-4)[Fuc(a1-3)]GlcNAc
# In short: as §1
# [19] = biological target: Neu5Ac(a2-6)Gal(b1-4)GlcNAc6S
# In short: as §1
# Neu5Ac(a2-6)GalNAc = biological target: Neu5Ac(a2-6)GalNAc
# In short: as §1
# [20] = biological target: Neu5Ac(a2-6)GalNAc(b1-4)GlcNAc
# In short: as §1
# Neu5Ac(a2-8)Neu5Ac = biological target: Neu5Ac(a2-8)Neu5Ac
# In short: as §1
# [21] = biological target: Neu5Ac(a2-8)Neu5Ac(a2-3)Gal(b1-4)Glc
# In short: as §1
# [22] = biological target: Neu5Ac(a2-8)Neu5Ac(a2-3)[GalNAc(b1-4)]Gal(b1-4)Glc
# In short: as §1
# [23] = biological target: Neu5Ac(a2-8)Neu5Ac(a2-8)Neu5Ac
# In short: as §1
# [24] = biological target: Neu5Ac(a2-8)Neu5Ac(a2-8)Neu5Ac(a2-3)Gal(b1-4)Glc
# In short: as §1
# [25] = biological target: Neu5Ac(a2-8)Neu5Ac(a2-8)Neu5Ac(a2-3)[GalNAc(b1-4)]Gal(b1-4)Glc
# In short: as §1
# [26] = biological target: Neu5Ac(a2-8)Neu5Ac(a2-8)Neu5Ac(a2-8)Neu5Ac(a2-3)[GalNAc(b1-4)]Gal(b1-4)Glc
# In short: as §1
# [27] = biological target: Neu5Ac9Ac(a2-6)Gal(b1-4)GlcNAc
# In short: as §1
# [28] = biological target: Neu5Gc(a2-3)Gal(b1-3)GlcNAc
# In short: as §1
# [29] = biological target: Neu5Gc(a2-3)Gal(b1-3)[Fuc(a1-4)]GlcNAc
# In short: as §1
# Neu5Gc(a2-3)Gal(b1-4)Glc = biological target: Neu5Gc(a2-3)Gal(b1-4)Glc
# In short: as §1
# [30] = biological target: Neu5Gc(a2-3)Gal(b1-4)GlcNAc
# In short: as §1
# [31] = biological target: Neu5Gc(a2-3)Gal(b1-4)[Fuc(a1-4)]GlcNAc
# In short: as §1
# [32] = biological target: Neu5Gc(a2-6)Gal(b1-4)GlcNAc
# In short: as §1
# Neu5Gc(a2-6)GalNAc = biological target: Neu5Gc(a2-6)GalNAc
# In short: as §1
binder,measurement,setting,value
B1,glycan array binding signal (z-score),[1],-0.571
same,glycan array binding signal (z-score),[2],-0.127
same,glycan array binding signal (z-score),[3],1.68
same,glycan array binding signal (z-score),[4],0.557
same,glycan array binding signal (z-score),[5],-0.57
same,glycan array binding signal (z-score),[6],1.81
same,glycan array binding signal (z-score),[7],-0.597
same,glycan array binding signal (z-score),[8],-0.531
same,glycan array binding signal (z-score),[9],-0.552
same,glycan array binding signal (z-score),[10],-0.565
same,glycan array binding signal (z-score),Neu5Ac(a2-3)GalNAc,-0.579
same,glycan array binding signal (z-score),[11],2.22
same,glycan array binding signal (z-score),[12],-0.579
same,glycan array binding signal (z-score),[13],1.89
same,glycan array binding signal (z-score),[14],-0.567
same,glycan array binding signal (z-score),[15],-0.574
same,glycan array binding signal (z-score),[16],-0.571
same,glycan array binding signal (z-score),[17],1.98
same,glycan array binding signal (z-score),[18],-0.578
same,glycan array binding signal (z-score),[19],-0.529
same,glycan array binding signal (z-score),Neu5Ac(a2-6)GalNAc,-0.587
same,glycan array binding signal (z-score),[20],-0.489
same,glycan array binding signal (z-score),Neu5Ac(a2-8)Neu5Ac,-0.57
same,glycan array binding signal (z-score),[21],-0.585
same,glycan array binding signal (z-score),[22],-0.574
same,glycan array binding signal (z-score),[23],-0.577
same,glycan array binding signal (z-score),[24],-0.578
same,glycan array binding signal (z-score),[25],-0.571
same,glycan array binding signal (z-score),[26],-0.572
same,glycan array binding signal (z-score),[27],-0.557
same,glycan array binding signal (z-score),[28],-0.567
same,glycan array binding signal (z-score),[29],-0.58
same,glycan array binding signal (z-score),Neu5Gc(a2-3)Gal(b1-4)Glc,-0.591
same,glycan array binding signal (z-score),[30],1.78
same,glycan array binding signal (z-score),[31],-0.361
same,glycan array binding signal (z-score),[32],-0.594
same,glycan array binding signal (z-score),Neu5Gc(a2-6)GalNAc,-0.576
